Among all 94,000 compounds or so, about 6,200 (6.6%) were called active. Inconclusive means that the source gave no clear call. Such entries were picked first, then a sample of the others. Calls follow the shape of the dose curve; as a rule, active = well fitted inhibition curve with a large enough effect; inconclusive = small, poorly fitted or top-dose-only effect; inactive = flat fitted curve, though single readings scatter. Potencies of inconclusive entries are doubtful fits and often do not repeat.
assay: Cytotoxic Profiling in HEK 293 Cell Line of Diverse Libraries Using Quantitative High-Throughput Screening; conditions: HEK 293 viability, ATP luminescence (CellTiter-Glo), 48-72 h; activity change, negative = cytotoxicity: at 115 µM (top of the series) unless noted; series mostly up to 115 µM; also: nearly all actives have a fitted effect of over 60% in size
Outline: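 Pintool-delivered compounds were incubated with HEK 293 cells (250 cells/well) at 37 degree Celsius for 48 or 72 hr. ATP-dependent luminescence (CellTiter-Glo) then reported remaining viable cells.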
% is scaled to controls: 0 for no effect and ±100 for the full control effect; potency is read from the fitted curve at half-maximal effect; tags tell the direction and shape of the fitted curve.

| Structure (SMILES) | activity change, negative = cytotoxicity | Potency |
| --- | --- | --- |
| O=C(C1CCCN1C(=O)c1ccccc1)N1CCCC(c2nc3ncccc3[nH]2)C1 (configuration not stated) | inactive: 2.61% |  |
| COc1cccc(NC(=O)CCc2ccc3c(c2)CN(S(C)(=O)=O)CCO3)c1 |  | inconclusive: 50.1 µM [inhibitor, partial curve, poor fit] |
| CN1CCCN(C(=O)CCc2ccccc2)c2ccccc21 |  | inconclusive: 56.2 µM [inhibitor, partial curve, poor fit] |
| Cc1ccc(C(=O)N2CCc3nc(C(C)C)nc(-c4ccc(O)cc4)c3CC2)cc1 | inactive: -7.36% |  |
| Cc1c[nH]c(CN2CCn3nc(C(O)Cc4ccccc4)cc3C2)c(C)c1=O (configuration not stated) | inactive: 0.68% |  |
| O=C(c1ccccn1)N1CCC2(CC(c3cccnc3)=NO2)C1 (configuration not stated) | inactive: -9.13% |  |
| COc1ccc(NC(=O)COc2ccc(NC(=O)C3CC3)cn2)cc1 | inactive: 1.04% |  |
| COc1ccc(NC(=O)N[C@H]2CO[C@H]3[C@@H]2OC[C@@H]3n2nnnc2-c2ccc3c(c2)OCO3)cc1 |  | inconclusive: 56.2 µM [inhibitor, partial curve, poor fit] |
| COc1cccc(-c2cccc(-c3nc(C4CCOCC4)nn3CCO)c2)c1 |  | inconclusive: 56.2 µM [inhibitor, partial curve, poor fit] |
| Cn1ncc(N2CCC(CNC(=O)c3ccccc3-c3ncn[nH]3)C2)cc1=O (configuration not stated) | inactive: -2.81% |  |
| COc1cccc(-c2ccc(NC(=O)C3CCCN(Cc4cc(C(C)C)n[nH]4)C3)cc2)c1 (configuration not stated) |  | active: 22.4 µM |
| COc1cccc(CN2C(=O)OC3(CCN(C(C)=O)CC3)C2(C)c2cccnc2)c1 (configuration not stated) | inactive: -0.512% [at 172 µM] |  |
| Cc1cn2nnc(C(=O)NC3CCc4ccccc43)c2c(=O)[nH]1 (configuration not stated) |  | inconclusive: 44.7 µM [inhibitor, partial curve, poor fit] |
| COc1ccccc1-c1[nH]nc2ncc(-c3ccccc3F)nc12 |  | inconclusive: 56.2 µM [inhibitor, partial curve, poor fit] |
| COc1cccc(-c2cc3c(ccn3C)c(C(=O)NCCc3cnc[nH]3)n2)c1OC |  | inconclusive: 89.1 µM [inhibitor, partial curve] |
| O[C@@H]1CCC2CC1[C@@H](O)CN2Cc1ccc(-c2ccccc2)cc1 (some centres not stated) |  | active: 79.4 µM |
| COc1ccccc1CC(=O)N1CCC2(CC1)N=C(c1ccc(Cl)cc1)NO2 |  | active: 44.7 µM |
| COc1ccc(C(=O)N2C[C@@H](F)[C@@H](OCc3nc4ccc(C(F)(F)F)cc4[nH]3)C2)cc1 |  | inconclusive: 50.1 µM [inhibitor, partial curve, poor fit] |
| CC(=O)Nc1ccc(CN2C(=O)OC3(CCN(C(=O)C4CCC4)CC3)C2(C)c2ccccc2)cc1 (configuration not stated) |  | inconclusive: 25.1 µM [inhibitor, full curve, poor fit] |
| CC1(C)N=C(c2ccccc2)C(=O)N1CC(N)=O | inactive: 3.67% |  |
| Cc1ccc(C(=O)N2CCCC3(CC(Cc4ccccc4)=NO3)C2)cc1 (configuration not stated) |  | inconclusive: 89.1 µM [inhibitor, single point] |

| Structure (SMILES) | activity change, negative = cytotoxicity | Potency |
| --- | --- | --- |
| Cc1noc(-c2cn(C3CCCN(C(=O)c4cccc5[nH]ccc45)C3)nn2)n1 (configuration not stated) |  | inconclusive: 35.5 µM [inhibitor, partial curve, poor fit] |
| O=C(c1cccc(Cl)c1)N1CCN(C(=O)c2nc3cccnc3n(CCc3ccccc3)c2=O)CC1 |  | inconclusive: 50.1 µM [inhibitor, partial curve, poor fit] |
| COc1ccc(CN2C(=O)COC[C@H]2C(=O)Nc2cc(F)ccc2C)c(OC)c1 | inactive: -2.3% |  |
| O=C(NCc1ccco1)c1ccc(Cn2ccn3nc4c(c3c2=O)CCCC4)cc1 |  | inconclusive: 15.8 µM [inhibitor, full curve, poor fit] |
| CC(C)CN1C(=O)c2ccccc2C(C(=O)NCc2ccco2)C12CCCC2 (configuration not stated) |  | inconclusive: 50.1 µM [inhibitor, partial curve, poor fit] |
| CC1(CNc2ccccc2)COc2ccc(C(=O)NCCOc3ccccc3)cc2N1 (configuration not stated) |  | active: 39.8 µM |
| CN(C)c1ccc(CNC2(Cc3cc(-c4cccc(O)c4)on3)COC2)cc1 |  | inconclusive: 126 µM [inhibitor, single point] |
| CCN1CCC2(Cc3ccccc3CN([S+](=O)([O-])c3ccccc3)C2)C1 (configuration not stated) |  | inconclusive: 79.4 µM [inhibitor, partial curve, poor fit] |
| O=C(NCc1ccccc1F)c1noc(-c2ccc3c(c2)OCO3)n1 | inactive: -21.5% |  |
| Cc1ccc(CNc2ncncc2-c2nc(-c3ccccc3)no2)cc1 |  | inconclusive: 100 µM [inhibitor, single point] |
| CC(C)(C)c1cc(C[C@H]2CNCC[C@H]2CC(=O)Nc2nccs2)no1 |  | active: 100 µM |
| N#Cc1ccc(CN2CCCC3(C2)NC(=O)c2ccccc2O3)cc1 (configuration not stated) |  | active: 89.1 µM |
| Cc1ccc(-n2c(C3CCN(C(=O)COc4ccc(Cl)cc4)CC3)n[nH]c2=O)cc1 | inactive: -4.67% |  |
| O=C1c2c(nc(COc3cc(F)cc(F)c3)n2Cc2ccccc2)NCCN1Cc1ccccc1F |  | inconclusive: 22.4 µM [inhibitor, full curve] |
| CC(=O)N[C@H](C)c1onc(-c2ccc(F)cc2)c1C(=O)O | inactive: -2.51% [at 230 µM] |  |
| O=C(c1ccn(C(F)F)n1)N1CCCC(c2ccccc2)(c2ccccc2)C1 |  | inconclusive: 56.2 µM [inhibitor, partial curve, poor fit] |
| COc1ccccc1NC(=O)Cn1c(-c2ccccc2)nc(C)cc1=O |  | inconclusive: 50.1 µM [inhibitor, partial curve, poor fit] |
| COc1cc(OC)cc(C(=O)NC2CCN(c3cc(-c4ccccc4)[nH]n3)CC2)c1 |  | inconclusive: 50.1 µM [inhibitor, partial curve, poor fit] |
| Cc1noc(C)c1Cc1ccc(C(=O)NCCc2noc(-c3ccccc3)n2)o1 |  | inconclusive: 50.1 µM [inhibitor, partial curve, poor fit] |
| O=C1CC2(CCN(CC3CCCCC3)CC2)Oc2ccccc2N1 |  | inconclusive: 100 µM [inhibitor, partial curve] |
| CC(C)CCN1CCC2(CC1)OCCN(CCc1ccccc1)C2=O |  | inconclusive: 79.4 µM [inhibitor, partial curve, poor fit] |

Reference: PubChem BioAssay AID1345083 (National Center for Advancing Translational Sciences (NCATS), 2018)
